Experimental data published in the antibiotic and cytotoxicity screens of Wong et al. (2023).
The list shows a part of the results.

Key:
[1] = test system: HSkMC (human skeletal muscle cells); assay: cytotoxicity call (relative viability < 0.9); settings: 10 µM
[2] = test system: HepG2; assay: cytotoxicity call (relative viability < 0.9); settings: 10 µM
[3] = test system: S. aureus RN4220; assay: growth inhibition call (relative growth <= 0.2); settings: 50 µM

Row | Structure (SMILES) | cytotoxicity call [1] | cytotoxicity call [2] | growth inhibition call [3]
1 | CCCNC(=O)C[C@H]1CC[C@H]2[C@H](COc3ccc(NS(=O)(=O)c4ccccc4C)cc3C(=O)N2C)O1 | inactive | inactive | inactive
2 | C[C@H](CO)N1C[C@H](C)[C@@H](CN(C)C(=O)Nc2cccc3ccccc23)Oc2ccc(NC(=O)Nc3ccc4c(c3)OCO4)cc2C1=O | inactive | inactive | inactive
3 | Cc1ccc(S(=O)(=O)Nc2ccc3c(c2)C(=O)N([C@H](C)CO)C[C@H](C)[C@@H](CN(C)Cc2ccc(-c4ccccc4)cc2)O3)cc1 | inactive | inactive | inactive
4 | CCC[C@@H](O)C#Cc1cnc2c(c1)C(=O)N([C@H](C)CO)C[C@H](C)[C@H](CN(C)S(=O)(=O)c1ccccc1)O2 | inactive | inactive | inactive
5 | C[C@@H]1CN([C@H](C)CO)C(=O)c2cc(C#CC3(O)CCCC3)cnc2O[C@H]1CN(C)C(=O)CN(C)C | inactive | inactive | inactive
6 | COCCNC(=O)C[C@@H]1C[C@H]2c3cc(NC(=O)COC)ccc3O[C@H]2[C@H](CO)O1 | inactive | inactive | inactive
7 | C[C@@H]1CN([C@@H](C)CO)C(=O)c2c(c3ccccc3n2C)-c2ccccc2CO[C@@H]1CN(C)C(=O)Nc1ccccc1C(F)(F)F | inactive | inactive | inactive
8 | O=c1c(O)cc(C2Oc3cc(O)cc(O)c3CC2O)cc2c(C3Oc4cc(O)cc(O)c4CC3O)cc(O)c(O)c12 (stereo unspecified) | inactive | inactive | inactive
9 | CC[C@@H](C)n1ncn(-c2ccc(N3CCN(c4ccc(OC[C@H]5CO[C@](Cn6cncn6)(c6ccc(Cl)cc6Cl)O5)cc4)CC3)cc2)c1=O | inactive | active | inactive
10 | C[C@H](CO)N1C[C@H](C)[C@H](CN(C)Cc2ccc(C(F)(F)F)cc2)Oc2ccc(NC(=O)Nc3cccc4ccccc34)cc2C1=O | inactive | active | inactive
11 | C=CCC[C@@H](Cc1ccc(F)cc1)C(=O)OC[C@@H](Cc1ccccc1)NC(=O)[C@H](CC=C)CC(=O)N(CCO)Cc1ccccc1 | inactive | inactive | inactive
12 | COc1ccc(S(=O)(=O)Nc2ccc3c(c2)CC(=O)N([C@H](C)CO)C[C@H](C)[C@H](CN(C)S(=O)(=O)c2ccc(OC)cc2)O3)cc1 | inactive | inactive | inactive
13 | O=c1ccc2c[nH][nH]c-2c1 | inactive | inactive | inactive
14 | O=C1CCCC2C3CCC[N+]4([O-])CCCC(CN12)C34 (stereo unspecified) | inactive | inactive | inactive
15 | COc1ccc(S(=O)(=O)N(C)C[C@@H]2Oc3ccc(NC(=O)NC(C)C)cc3C(=O)N([C@@H](C)CO)C[C@@H]2C)cc1 | inactive | inactive | inactive
16 | NCCSC(=S)NC1CCCCCCC1 | inactive | inactive | inactive
17 | C[C@@H]1CN([C@H](C)CO)C(=O)c2cc(C#Cc3ccccc3F)cnc2O[C@H]1CN(C)C(=O)Cc1cccnc1 | inactive | inactive | inactive
18 | CCS(=O)(=O)N1CC[C@]2(CC1)CN([C@H](CO)c1[nH]c3cc(ccc3c12)OC)C(=O)c1ccc(cc1)F | inactive | inactive | inactive
19 | Cc1ccc(S(=O)(=O)N(C)C[C@H]2OCCCC[C@H](C)Oc3ccc(NS(=O)(=O)c4ccc(Cl)cc4)cc3C(=O)N([C@H](C)CO)C[C@@H]2C)cc1 | inactive | inactive | inactive
20 | COc1ccc(NC(=O)N(C)C[C@H]2OCCCC[C@@H](C)Oc3ccc(NS(=O)(=O)c4ccc(F)cc4)cc3C(=O)N([C@H](C)CO)C[C@H]2C)cc1 | inactive | inactive | inactive
21 | C[C@@H]1CN([C@@H](C)CO)C(=O)Cc2cc(NC(=O)Nc3ccc(F)cc3)ccc2O[C@@H]1CN(C)S(=O)(=O)c1cn(C)cn1 | inactive | inactive | inactive
22 | COc1ccc(S(=O)(=O)Nc2ccc3c(c2)C(=O)N([C@H](C)CO)C[C@H](C)[C@H](CN(C)C(=O)NC2CCCCC2)OCCCC[C@@H](C)O3)cc1 | inactive | inactive | inactive
23 | CCC[C@@H](O)C#Cc1cnc2c(c1)C(=O)N([C@H](C)CO)C[C@H](C)[C@H](CN(C)C(=O)Nc1ccc(OC)cc1)O2 | inactive | inactive | inactive
24 | C[C@@H]1CN([C@H](C)CO)S(=O)(=O)c2ccc(C#C[C@@H](C)O)cc2O[C@H]1CN(C)C(=O)C1CCCCC1 | inactive | inactive | inactive
25 | CN(C)CC(=O)N1CC(=O)N2[C@H](CO)[C@@H](c3ccc(C#Cc4cccnc4)cc3)[C@@H]2C1 | inactive | inactive | inactive
26 | COCC#Cc1ccc2c(c1)O[C@H](CN(C)S(=O)(=O)c1cccc(OC)c1)[C@@H](C)CN([C@@H](C)CO)S2(=O)=O | inactive | inactive | inactive

Row | Structure (SMILES) | cytotoxicity call [1] | cytotoxicity call [2] | growth inhibition call [3]
27 | CN(C)C(=O)C[C@@H]1CC[C@H](NC(=O)C2CC2)[C@H](CO)O1 | inactive | inactive | inactive
28 | O=C(C[C@H]1C[C@H]2c3cc(NS(=O)(=O)c4ccc(F)cc4)ccc3O[C@H]2[C@H](CO)O1)NCc1cccnc1 | inactive | inactive | inactive
29 | C[C@@H]1CCCCO[C@@H](CN(C)CC2CC2)[C@H](C)CN([C@@H](C)CO)C(=O)c2cc(NC(=O)C3CCCCC3)ccc2O1 | inactive | inactive | inactive
30 | CCc1c(Cl)c(O)c(Cl)c(O)c1C(=O)O[C@H]1[C@H](O)[C@H](OC)[C@H](OC/C2=C\C=C\C[C@H](O)/C(C)=C/[C@H](CC)[C@@H](O[C@@H]3OC(C)(C)[C@@H](OC(=O)C(C)C)[C@H](O)[C@@H]3O)/C(C)=C/C(C)=C/C[C@@H]([C@@H](C)O)OC2=O)O[C@@H]1C | active | inactive | inactive
31 | COc1ccccc1-c1cccc(-c2nc(C(=O)N3CCCCC3)cc3c2[C@H](CCO)N([S@@](=O)C(C)(C)C)C3)c1 | inactive | inactive | inactive
32 | C[C@@H]1CN([C@@H](C)CO)C(=O)c2cc(NS(=O)(=O)c3ccc(F)cc3)ccc2O[C@@H](C)CCCCO[C@H]1CN(C)C(=O)NC1CCCCC1 | inactive | inactive | inactive
33 | C[C@H](CO)N1C[C@H](C)[C@@H](CN(C)C(=O)NC2CCCCC2)Oc2c(NC(=O)Cn3cnnn3)cccc2C1=O | inactive | inactive | inactive
34 | COc1ccc(S(=O)(=O)Nc2cccc3c2O[C@@H](CN(C)Cc2ccc(Cl)c(Cl)c2)[C@@H](C)CN([C@@H](C)CO)C3=O)cc1 | inactive | inactive | inactive
35 | CN1CCC[C@H](C(=O)O)C1 | inactive | inactive | inactive
36 | C[C@@H]1CN([C@H](C)CO)C(=O)c2cc(NC(=O)C3CCCCC3)ccc2O[C@@H]1CN(C)Cc1ccc(Cl)c(Cl)c1 | inactive | inactive | inactive
37 | CCc1nc2ccc(C(=O)N3CCN(C(=O)c4ccco4)CC3)cn2c1N(C)C(=O)c1cccc(OC)c1 | inactive | inactive | inactive
38 | CC(=O)O[C@H]1[C@@H](OC(C)=O)C(C)(C)/C=C/[C@@](C)(O)C(=O)[C@]2(O)[C@H]([C@@H](OC(C)=O)[C@](C)(OC(C)=O)[C@H]2OC(C)=O)[C@H]2OC(=O)CC[C@@]2(OC(C)=O)[C@@H]1OC(=O)C(C)C | inactive | inactive | inactive
39 | NC(=O)c1cc[n+](CC2=C(C(=O)[O-])N3C(=O)C(NC(=O)C(c4ccccc4)S(=O)(=O)[O-])C3SC2)cc1.[Na+] (stereo unspecified) | inactive | inactive | inactive
40 | C[C@H]1CN([C@@H](C)CO)C(=O)c2cc(NC(=O)Cn3cnnn3)ccc2O[C@H]1CN(C)Cc1ccc(Cl)c(Cl)c1 | inactive | inactive | inactive
41 | COc1ccc(S(=O)(=O)N(C)C[C@@H]2Oc3c(NC(=O)C4CC4)cccc3C(=O)N([C@@H](C)CO)C[C@H]2C)cc1 | inactive | inactive | inactive
42 | O=C(CNCCO)Nc1ccc(F)c(Cl)c1 | inactive | inactive | inactive
43 | Cc1ccc(S(=O)(=O)N[C@@H](Cc2ccccc2)C(=O)NCCCn2cc(-c3cccc(/C=C/C(=O)NO)c3)nn2)cc1 | inactive | active | inactive
44 | C[C@@H]1CN([C@@H](C)CO)C(=O)Cc2cc(NS(C)(=O)=O)ccc2O[C@@H]1CN(C)C(=O)NC1CCCCC1 | inactive | inactive | inactive
45 | C[C@H](CO)N1C[C@H](C)[C@H](CN(C)Cc2ccc(Oc3ccccc3)cc2)Oc2c(NS(=O)(=O)c3ccccc3)cccc2C1=O | inactive | inactive | inactive
46 | C[C@@H]1CN([C@@H](C)CO)S(=O)(=O)c2ccc(C#CC3CC3)cc2O[C@@H]1CN(C)Cc1cccc(F)c1 | inactive | inactive | inactive
47 | COc1ccc(S(=O)(=O)Nc2ccc3c(c2)CC(=O)N([C@@H](C)CO)C[C@@H](C)[C@@H](CN(C)Cc2ccc(Cl)c(Cl)c2)O3)cc1 | active | active | inactive
48 | C[C@H]1CN([C@@H](C)CO)C(=O)c2cc(NC(=O)Cn3cnnn3)ccc2O[C@H]1CN(C)Cc1ccc2c(c1)OCO2 | inactive | inactive | inactive
49 | Cc1ccc(S(=O)(=O)Nc2cccc3c2O[C@@H](CN(C)Cc2ccc(Cl)c(Cl)c2)[C@H](C)CN([C@H](C)CO)C3=O)cc1 | inactive | inactive | inactive
50 | Cc1nc(S(=O)(=O)N[C@H]2CCS(=O)(=O)C2)cn1C | inactive | active | inactive
51 | O=C(C=Cc1ccccc1)c1ccc(OC2OC(CO)C(O)C(O)C2O)cc1O (stereo unspecified) | inactive | inactive | inactive
52 | C[C@H]1CCCCO[C@H](CN(C)C(=O)C2CCCCC2)[C@@H](C)CN([C@@H](C)CO)C(=O)c2cc(NC(=O)c3ccccc3)ccc2O1 | inactive | inactive | inactive
